# Out of some 310,000 compounds screened, about 18,000 (5.8%) were called active. Inconclusive results, whose numbers are uncertain, are shown with a selection of clear calls. Calls follow the shape of the dose curve; as a rule, active = well fitted inhibition curve with a large enough effect; inconclusive = small, poorly fitted or top-dose-only effect, or another doubt; inactive = no such curve, though single readings can be large or run the other way. Potencies of inconclusive entries are left out as doubtful fits.
# Test: Primary qHTS for delayed death inhibitors of the malarial parasite plastid, 48 hour incubation
# Details: P. falciparum luciferase growth in erythrocytes; series mostly up to 28.7 µM; activity change, negative = inhibition: at the top concentration
# In short: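 Firefly luciferase activity from engineered P. falciparum reports growth; inhibitors lower the luminescent signal. Cultures contained 2% hematocrit erythrocytes at 0.1% final parasitemia.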
# % is scaled to controls: 0 for no effect and ±100 for the full control effect; potency is read from the fitted curve at half-maximal effect; tags tell the direction and shape of the fitted curve.
SMILES,Potency,"activity change, negative = inhibition"
CC(C)C(C)NC(=O)CSc1nc2scc(-c3ccco3)c2c(=O)n1-c1ccccc1 (centres undefined),active: 11.7 µM,–
Cc1cccc(C)c1NC(=O)CN1C(=O)CCSc2ccc(S(=O)(=O)N3CCCC3)cc21,"inconclusive [inhibitor, single point]",–
COc1ccc(/C=C(\C#N)C(=O)OCC(=O)Nc2ccc(C(C)(C)C)cc2)cc1,–,inactive: 22.8%
COc1ccccc1NCC(=O)Nc1cc(S(=O)(=O)N2CCOCC2)ccc1N1CCOCC1,"inconclusive [inhibitor, partial curve, poor fit]",–
COc1ccc(C2(c3ccc(OC)cc3)NC(=O)N(CC(=O)Nc3ccccc3C(F)(F)F)C2=O)cc1,"inconclusive [inhibitor, single point]",–
Cc1ccc(Nc2cc(C)nc3nc(C)nn23)cc1,"inconclusive [inhibitor, partial curve]",–
COc1ccccc1NC(=O)/C(=C/c1ccncc1)NC(=O)c1ccccc1,–,inactive: -13.5%
COC(=O)CSc1ncnc2c1sc1nc(-c3ccco3)c3c(c12)CC(C)(C)OC3,–,inactive: 28.7%
Cc1ccnc(NC(=O)C2CCN(S(=O)(=O)c3cccc(C(F)(F)F)c3)CC2)c1,"inconclusive [inhibitor, single point]",–
COc1ccc(C(=O)Nc2ccc(-n3nncc3C(C)(C)C)cc2)cc1,"inconclusive [inhibitor, partial curve, poor fit]",–
COc1ccc(CCNC(=O)C2CCN(C(=O)c3ccc(Br)cc3)CC2)cc1,"inconclusive [inhibitor, full curve, poor fit]",–
O=C(CSc1ncnc2c1oc1ccccc12)Nc1nc2ccccc2s1,"inconclusive [inhibitor, single point]",–
CCOc1ccc(NC(=O)CCN2CCN(S(=O)(=O)c3cc(Cl)ccc3OC)CC2)cc1,"inconclusive [inhibitor, partial curve]",–
N#C/C(=C\c1ccc(Cl)cc1)C(=O)Nc1cccnc1,–,inactive: 0%
N[C@@H](CO)C(=O)NNCc1ccc(O)c(O)c1O,–,inactive: 6.29%
COCCCNc1nc(N)c([N+](=O)[O-])c(NC2CCCCC2)n1,"inconclusive [inhibitor, partial curve]",–
COc1ccc(N2C(=O)CSC(c3ccccc3)C2=O)cc1 (centres undefined),–,inactive: 13.6%
COc1ccc(NC(=O)c2cc3c(Cl)nc4ccccc4c3s2)cc1OC,active: 2.08 µM,–
COC(=O)C1C(=O)c2c([nH]c(C(=O)OC3CCCC3C)c2C)CC1C (centres undefined),–,inactive: 14.9%
C=CCN(CC=C)Cc1nc(N)nc(Nc2ccccc2C)n1,"inconclusive [inhibitor, partial curve, poor fit]",–
CCCCOCCCNC(=O)c1ccccc1OCC,active: 10.4 µM,–
CCN(CC(=O)NCc1cccs1)C(=O)COc1ccc(C(C)=O)cc1,–,inactive: 23.4%
COC(=O)[C@@]1(Cc2ccc(F)cc2)[C@H]2c3cc(C(=O)N(C)C)n(Cc4c(CO)[nH]cc(C)c4=O)c3C[C@H]2CN1C(=O)c1ccccc1,active: 1.31 µM,–

SMILES,Potency,"activity change, negative = inhibition"
CC1Oc2ccccc2C=C1/C=N/NC(=O)c1ccccc1O (centres undefined),active: 3.7 µM,–
Cn1cccc1-c1cc(C(=O)N/N=C/c2ccc(Cl)cc2)[nH]n1,–,inactive: -23.2%
C=CCn1c(SCC(=O)Nc2ccc(-c3nc4ccc(C)cc4s3)cc2)nnc1-c1ccncc1,–,inactive: 127%
c1ccc(OCc2noc(CN3CCC(C4CCCCC4)C3)n2)cc1 (centres undefined),"inconclusive [inhibitor, partial curve, poor fit]",–
CCC(=O)N(Cc1ccc2c(c1)OCO2)Cc1cc2cc(OC)ccc2[nH]c1=O,"inconclusive [inhibitor, partial curve, poor fit]",–
COc1cc(C)ccc1OCc1cc(C(=O)NCCN2CCOCC2)no1,–,inactive: 23.9%
CCOC(=O)N1CCN(C(=O)c2ccc(CS(=O)(=O)c3c(Cl)cccc3Cl)o2)CC1,"inconclusive [inhibitor, partial curve, poor fit]",–
CCCOc1ccc(-c2nnn(CC(=O)N3CCCC(C)C3)n2)cc1 (centres undefined),"inconclusive [inhibitor, partial curve, poor fit]",–
CN(CC(=O)Nc1cccc(F)c1)C(=O)c1ccc2c(c1)S(=O)(=O)N=C1CCCCCN12,"inconclusive [inhibitor, full curve, poor fit]",–
O=C1CN(c2ccccc2)C(=S)N1c1ccccc1,–,inactive: 1.51%
O=C1C(Cl)=C(Nc2ccccc2)C(=O)c2ccccc21,–,inactive: 22.8%
COc1cc(OC)cc(C(=O)NC2CCN(CCCOc3ccccc3)CC2)c1,"inconclusive [inhibitor, full curve]",–
Cc1[nH]c2ccccc2c1/C=N/Nc1nc(Nc2ccccc2)nc(N2CCOCC2)n1,"inconclusive [inhibitor, single point]",–
CCOC(=O)N1CCN(C(=O)CSCC(=O)Nc2nc(-c3ccc(OC)cc3)cs2)CC1,"inconclusive [inhibitor, single point]",–
CN1CCC(Oc2ccccc2Sc2ccc(C(F)(F)F)cc2)CC1,"inconclusive [inhibitor, single point]",–
N#C/C(=C\c1cccs1)c1nc2ccccc2[nH]1,"inconclusive [inhibitor, single point]",–
CC(=O)c1cccc(OCC(=O)Nc2cc(S(=O)(=O)N3CCOCC3)ccc2N2CCCC2)c1,"inconclusive [inhibitor, single point]",–
Cc1cc(C)nc(SCC(=O)NC2=NN=C(c3ccc(Br)cc3)CS2)n1,"inconclusive [inhibitor, full curve]",–
COc1ccc(-c2nc3cnccn3c2NC(C)(C)CC(C)(C)C)cc1O,"inconclusive [inhibitor, single point]",–
O=C(COc1ccc(S(=O)(=O)N2CCOCC2)cc1)NCCCn1ccnc1,–,inactive: -4.22%
CCOC(=O)c1ccc(NC(=S)N2CCSC2c2c(F)cc(F)cc2F)cc1 (centres undefined),"inconclusive [inhibitor, partial curve, poor fit]",–
O=C(c1cccc(S(=O)(=O)N2CCN(c3ccccc3)CC2)c1)N1CC=C(c2ccccc2)CC1,"inconclusive [inhibitor, partial curve, poor fit]",–
COC(=O)C1=CN(Cc2ccc(OC)c(OC)c2)C=C(C(=O)OC)C1c1cccc(O)c1,"inconclusive [inhibitor, partial curve, poor fit]",–

SMILES,Potency,"activity change, negative = inhibition"
CCC(C)NC(=O)C1c2ccccc2C(=O)N1Cc1ccccc1OC (centres undefined),"inconclusive [inhibitor, single point]",–
CC1(C)CC(=O)C=C(c2cccc(Cl)c2O)C1,"inconclusive [inhibitor, single point]",–
O=C(NCC(c1ccco1)N1CCCCC1)c1ccc(COc2ccccc2)cc1 (centres undefined),"inconclusive [inhibitor, partial curve, poor fit]",–
COc1ccc(CCn2c(O)c(C=NCCCO)c(=O)[nH]c2=O)cc1OC,"inconclusive [inhibitor, single point]",–
NS(=O)(=O)c1ccc(CNC(=O)c2cccc(S(=O)(=O)N3CCc4ccccc43)c2)cc1,active: 14.7 µM,–
C=CCn1c(SCC(=O)N2CCN(CCO)CC2)nc2sc3c(c2c1=O)CCC3,–,inactive: -10.3%
CCCCSc1nc(O)cc(=O)n1CC,–,inactive: 9.16%
CCC(=O)c1ccc(OCC(O)CN2CCN(S(=O)(=O)c3ccc(NC(C)=O)cc3)CC2)cc1 (centres undefined),"inconclusive [inhibitor, partial curve]",–
COc1cc(C(=O)N(Cc2ccccc2)c2cccc(C)c2)ccc1OC(F)F,"inconclusive [inhibitor, partial curve]",–
O=C1N/C(=N/N=C/c2ccc(O)cc2)SC1Cc1ccccc1 (centres undefined),"inconclusive [inhibitor, partial curve, poor fit]",–
CC(C)(C)C(=O)CNCC(=O)C(C)(C)C,–,inactive: 19.5%
Cn1c(O)c(C=NC2CC3CCC2(C)C3(C)C)c(=O)[nH]c1=O (centres undefined),"inconclusive [inhibitor, single point]",–
Cc1cc(C)c2cccc(N)c2n1,–,inactive: 22.3%
Cc1ccc(NC(=O)CC2OC(=O)c3ccccc32)cc1S(=O)(=O)N1CCCCCC1 (centres undefined),active: 8.28 µM,–
C/C(N)=C(/C#N)C(=O)CSc1nn(-c2ccc(Cl)cc2)c(=S)s1,"inconclusive [inhibitor, single point]",–
COc1ccccc1/C=C/C(=O)/C=C/c1ccccc1O,"inconclusive [inhibitor, partial curve, poor fit]",–
Cc1cc(NS(=O)(=O)c2ccc(NC(=O)CSc3nc4ncccc4[nH]3)cc2)nc(C)n1,–,inactive: -3.26%
COc1ccc(C(C)NC(=O)C2CCCC2)cc1 (centres undefined),–,inactive: 3.5%
Cc1ccc(CN(C)C(=O)c2ccc(NS(=O)(=O)c3ccc4[nH]c(=O)[nH]c4c3)cc2)cc1,"inconclusive [inhibitor, single point]",–
CC1(C)COC(/C=C/c2cccc([N+](=O)[O-])c2)=N1,"inconclusive [inhibitor, single point]",–
COc1ccc(C(c2ccc(OC)cc2)C(Cl)(Cl)Cl)cc1,"inconclusive [inhibitor, single point]",–
O=C(CC1CC2CCC1C2)NCc1cccs1 (centres undefined),–,inactive: 26.2%
c1ccc(OCCCn2nnc(-c3ccncc3)n2)cc1,"inconclusive [inhibitor, single point]",–
